Results: US10993999B2, “Materials and methods for producing improved lentiviral vector particles” (IMMUNE DESIGN CORP., priority 2012, dated 2021)

Test system: HT1080 cells stably expressing the human DC-SIGN receptor
Test: Transduction of HT1080 cells stably expressing human DC-SIGN (GFP expression)
Procedure: 293T cells were transfected with four separate plasmids encoding the lentiviral genome, the Gag/Pol, Rev, and the Envelope, respectively, using polyethyleneimine (PEI). Five hours after transfection, mix+media was removed. Media was added back to the vessel along with the indicated amount of mannosidase inhibitor (i.e., DMNJ, kifunensine, and swainsonine). 48 hours later, supernatant (containing vector) was collected and filtered with a 0.45 μm filter. […] The parental HT1080 cells (lacking DC-SIGN), were used as controls, and were not transduced by any of the vectors. […] The results are shown in FIGS. 1A (HT1080 expressing DC-SIGN) and 1B (parental HT1080).
293T cells were transfected with the plasmids described in Example 1 using PEI. Five hours after transfection, mix+media was removed. Media was added back to the vessel along with the indicated amount of Kifunensine (μg/ml), or with 400 μg/ml of DMNJ. 48 hours later supernatant (containing lentiviral vector particles) was collected and filtered with a 0.45 μm filter. […] The parental HT1080 cells, which are not transduced by the vector, were used as controls. […] The results are shown in FIGS. 2A (HT1080 cells expressing DC-SIGN) and 2B (parental HT1080 cells).
The results are illustrated in FIG. 4.

Compound: O=C1N[C@@H]2[C@@H](O)[C@@H](O)[C@H](O)[C@@H](CO)N2C1=O [kifunensine]
- kifunensine concentration in production medium matching particles produced with 400 μg/ml DMNJ in infecting DC-SIGN-expressing cells: 0.125 µg/mL
- kifunensine concentrations giving particles that infect DC-SIGN-expressing cells much more efficiently than 400 μg/ml DMNJ particles: exceeding 0.125 μg/ml
- transfection of cells expressing DC-SIGN by particles produced in presence of the inhibitor (kifunensine 1 μg/ml vs DMNJ 400 μg/ml or swainsonine 10 μg/ml in production medium): significantly better
- kifunensine concentration at which ability of particles to infect DC-SIGN-expressing cells peaks (titration of kifunensine): 0.25 µg/mL
